Here are results for 32 sequences from article PMC12820563, “FoxP3 forms a head-to-head dimer in vivo and stabilizes its multimerization on adjacent microsatellites”.

The list shows a part of the results.

This test concerns the target T1, MBP-FoxP1dN (Mus musculus, UniProt P58462 326-579).
T1 sequence: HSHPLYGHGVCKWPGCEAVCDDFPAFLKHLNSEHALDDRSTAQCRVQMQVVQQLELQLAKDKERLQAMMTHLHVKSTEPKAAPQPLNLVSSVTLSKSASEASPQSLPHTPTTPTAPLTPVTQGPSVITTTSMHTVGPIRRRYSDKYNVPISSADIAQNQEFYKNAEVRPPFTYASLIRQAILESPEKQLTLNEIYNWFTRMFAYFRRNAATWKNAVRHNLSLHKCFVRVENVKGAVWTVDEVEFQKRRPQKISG
The test is described as follows: PD-seq (MBP pull-down with sequencing); 20 mM Tris-HCl pH 7.5, 100 mM NaCl, 1.5 mM MgCl2, 0.4 uM protein, 0.1 uM dsDNA library, 30 min, room temperature, amylose pull-down; high values mean tight binding. Particulars: protein: recombinant; tags: His6-MBP; chain copies: 2; dsDNA, one strand shown. The method in brief: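 Binding is the reads-per-million enrichment of pull-down relative to input, pooled across replicates. For this, 0.4 µM His6-MBP-tagged mouse FoxP3 or FoxP1 fragment lacking the N-terminus, made in E. coli, was incubated with 0.1 µM Klenow-filled double-stranded degenerate DNA library for 30 min at room temperature in Tris pH 7.5 buffer with NaCl and MgCl2. Complexes bound to amylose resin were washed three times before proteinase K released the DNA for PCR barcoding and Illumina sequencing.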
Take “GATGATTGTTCTCCCAGCTGATGAATTTTGGCACTCGAGTAAACAAATTTTCCTAATCTTTCTGTTCAAGCGCCATCTAC”: the binding signal is 0.912 RPM ratio (pull-down/input).
On to “GATGATTGTTCTCCCAGCTGATGAATTATCTCGGTCGAGTAAACAAATTTTCCTAATCTTTCTGTTCAAGCGCCATCTAC”, for which the binding signal is 0.855 RPM ratio (pull-down/input).
Take “GATGATTGTTCTCCCAGCTGATGAATTAAGTCGCTCGAGTAAACAAATTTTCCTAATCTTTCTGTTCAAGCGCCATCTAC”: the binding signal was 0.951 RPM ratio (pull-down/input).
On to “GATGATTGTTCTCCCAGCTGATGAATTACAACTCTCGAGTAAACAAATTTTCCTAATCTTTCTGTTCAAGCGCCATCTAC”, for which the binding signal was 1.27 RPM ratio (pull-down/input).
Turning to “GATGATTGTTCTCCCAGCTGATGAATTGCTTAGATCGAGTAAACAAATTTTCCTAATCTTTCTGTTCAAGCGCCATCTAC”, the binding signal is 1.11 RPM ratio (pull-down/input).
Regarding “GATGATTGTTCTCCCAGCTGATGAATTGGTCGTATCGAGTAAACAAATTTTCCTAATCTTTCTGTTCAAGCGCCATCTAC”, the binding signal was 0.934 RPM ratio (pull-down/input).
Regarding “GATGATTGTTCTCCCAGCTGATGAATTTGAGGCTTCGAGTAAACAAATTTTCCTAATCTTTCTGTTCAAGCGCCATCTAC”, the binding signal is 0.876 RPM ratio (pull-down/input).
Turning to “GATGATTGTTCTCCCAGCTGATGAATTGGACAATTCGAGTAAACAAATTTTCCTAATCTTTCTGTTCAAGCGCCATCTAC”, the binding signal was 0.972 RPM ratio (pull-down/input).
In the case of “GATGATTGTTCTCCCAGCTGATGAATTAATGAATTCGAGTAAACAAATTTTCCTAATCTTTCTGTTCAAGCGCCATCTAC”, the binding signal was 1.01 RPM ratio (pull-down/input).
As for “GATGATTGTTCTCCCAGCTGATGAATTTTAACGGTCGAGTAAACAAATTTTCCTAATCTTTCTGTTCAAGCGCCATCTAC”, the binding signal was 0.842 RPM ratio (pull-down/input).
“GATGATTGTTCTCCCAGCTGATGAATTACTGAGCTCGAGTAAACAAATTTTCCTAATCTTTCTGTTCAAGCGCCATCTAC”: the binding signal is 0.926 RPM ratio (pull-down/input).
As for “GATGATTGTTCTCCCAGCTGATGAATTTTTGACATCGAGTAAACAAATTTTCCTAATCTTTCTGTTCAAGCGCCATCTAC”, the binding signal was 1.09 RPM ratio (pull-down/input).
In the case of “GATGATTGTTCTCCCAGCTGATGAATTTTGTTGTTCGAGTAAACAAATTTTCCTAATCTTTCTGTTCAAGCGCCATCTAC”, the binding signal was 2.84 RPM ratio (pull-down/input).
On to “GATGATTGTTCTCCCAGCTGATGAATTAAATGGTTCGAGTAAACAAATTTTCCTAATCTTTCTGTTCAAGCGCCATCTAC”, for which the binding signal was 0.962 RPM ratio (pull-down/input).
On to “GATGATTGTTCTCCCAGCTGATGAATTGGTGCCCTCGAGTAAACAAATTTTCCTAATCTTTCTGTTCAAGCGCCATCTAC”, for which the binding signal was 0.87 RPM ratio (pull-down/input).
As for “GATGATTGTTCTCCCAGCTGATGAATTTAGCGACTCGAGTAAACAAATTTTCCTAATCTTTCTGTTCAAGCGCCATCTAC”, the binding signal is 0.682 RPM ratio (pull-down/input).
As to “GATGATTGTTCTCCCAGCTGATGAATTTAGCAGTTCGAGTAAACAAATTTTCCTAATCTTTCTGTTCAAGCGCCATCTAC”, the binding signal is 0.973 RPM ratio (pull-down/input).
The figure for “GATGATTGTTCTCCCAGCTGATGAATTACTCATTTCGAGTAAACAAATTTTCCTAATCTTTCTGTTCAAGCGCCATCTAC” is 1.12 RPM ratio (pull-down/input); for “GATGATTGTTCTCCCAGCTGATGAATTCATTGAGTCGAGTAAACAAATTTTCCTAATCTTTCTGTTCAAGCGCCATCTAC” it is 0.913 RPM ratio (pull-down/input).
On to “GATGATTGTTCTCCCAGCTGATGAATTTAATTAATCGAGTAAACAAATTTTCCTAATCTTTCTGTTCAAGCGCCATCTAC”, for which the binding signal is 0.987 RPM ratio (pull-down/input).
For “GATGATTGTTCTCCCAGCTGATGAATTTTGGGAATCGAGTAAACAAATTTTCCTAATCTTTCTGTTCAAGCGCCATCTAC” the value was 0.94 RPM ratio (pull-down/input); for “GATGATTGTTCTCCCAGCTGATGAATTCCGGCCTTCGAGTAAACAAATTTTCCTAATCTTTCTGTTCAAGCGCCATCTAC”, 0.761 RPM ratio (pull-down/input); for “GATGATTGTTCTCCCAGCTGATGAATTGACATGCTCGAGTAAACAAATTTTCCTAATCTTTCTGTTCAAGCGCCATCTAC”, 1.17 RPM ratio (pull-down/input).
“GATGATTGTTCTCCCAGCTGATGAATTTGCCCCATCGAGTAAACAAATTTTCCTAATCTTTCTGTTCAAGCGCCATCTAC”: the binding signal was 0.933 RPM ratio (pull-down/input).
For the sequence “GATGATTGTTCTCCCAGCTGATGAATTGATCATCTCGAGTAAACAAATTTTCCTAATCTTTCTGTTCAAGCGCCATCTAC”, the binding signal was 0.957 RPM ratio (pull-down/input).
The figure for “GATGATTGTTCTCCCAGCTGATGAATTGTTTACCTCGAGTAAACAAATTTTCCTAATCTTTCTGTTCAAGCGCCATCTAC” is 2.65 RPM ratio (pull-down/input); for “GATGATTGTTCTCCCAGCTGATGAATTCCTATCATCGAGTAAACAAATTTTCCTAATCTTTCTGTTCAAGCGCCATCTAC” it is 0.891 RPM ratio (pull-down/input).
For “GATGATTGTTCTCCCAGCTGATGAATTTCTCCGTTCGAGTAAACAAATTTTCCTAATCTTTCTGTTCAAGCGCCATCTAC”, the binding signal was 0.952 RPM ratio (pull-down/input).
Consider “GATGATTGTTCTCCCAGCTGATGAATTTTGGTATTCGAGTAAACAAATTTTCCTAATCTTTCTGTTCAAGCGCCATCTAC”, for which the binding signal was 1.06 RPM ratio (pull-down/input).
Regarding “GATGATTGTTCTCCCAGCTGATGAATTCAATATTTCGAGTAAACAAATTTTCCTAATCTTTCTGTTCAAGCGCCATCTAC”, the binding signal is 0.919 RPM ratio (pull-down/input).
The figure for “GATGATTGTTCTCCCAGCTGATGAATTTCCGAGCTCGAGTAAACAAATTTTCCTAATCTTTCTGTTCAAGCGCCATCTAC” is 0.806 RPM ratio (pull-down/input).
Consider “GATGATTGTTCTCCCAGCTGATGAATTCCTGTGGTCGAGTAAACAAATTTTCCTAATCTTTCTGTTCAAGCGCCATCTAC”, for which the binding signal is 0.912 RPM ratio (pull-down/input).
